Substitutions are numbered along the chain they refer to. No constants are given. Whether binding was seen depends on the method and setting. For part of these data: In cells and extracts the contact can be indirect. Some entries that bind do so weakly or less than the wild type. For part of these data: Tags and fused reporters may be left off the sequences shown.
B1: TRMT11 (enzyme, UniProt Q7Z4G4 1-463)
chain: MALSCTLNRYLLLMAQEHLEFRLPEIKSLLLLFGGQFASSQETYGKSPFWILSIPSEDIARNLMKRTVCAKSIFELWGHGQSPEELYSSLKNYPVEKMVPFLHSDSTYKIKIHTFNKTLTQEEKIKRIDALEFLPFEGKVNLKKPQHVFSVLEDYGLDPNCIPENPHNIYFGRWIADGQRELIESYSVKKRHFIGNTSMDAGLSFIMANHGKVKENDIVFDPFVGTGGLLIACAHFGAYVYGTDIDYNTVHGLGKATRKNQKWRGPDENIRANLRQYGLEKYYLDVLVSDASKPSWRKGTYFDAIITDPPYGIRESTRRTGSQKEIPKGIEKWEKCPESHVPVSLSYHLSDMFLDLLNFAAETLVLGGRLVYWLPVYTPEYTEEMVPWHPCLELVSNCEQKLSSHTSRRLITMEKVKKFENRDQYSHLLSDHFLPYQGHNSFREKYFSGVTKRIAKEEKSTQE
B2: THUMPD3 (enzyme, UniProt Q9BV44 1-507)
chain: MCDIEEATNQLLDVNLHENQKSVQVTESDLGSESELLVTIGATVPTGFEQTAADEVREKLGSSCKISRDRGKIYFVISVESLAQVHCLRSVDNLFVVVQEFQDYQFKQTKEEVLKDFEDLAGKLPWSNPLKVWKINASFKKKKAKRKKINQNSSKEKINNGQEVKIDQRNVKKEFTSHALDSHILDYYENPAIKEDVSTLIGDDLASCKDETDESSKEETEPQVLKFRVTCNRAGEKHCFTSNEAARDFGGAVQDYFKWKADMTNFDVEVLLNIHDNEVIVGIALTEESLHRRNITHFGPTTLRSTLAYGMLRLCDPLPYDIIVDPMCGTGAIPIEGATEWSDCFHIAGDNNPLAVNRAANNIASLLTKSQIKEGKPSWGLPIDAVQWDICNLPLRTGSVDIIVTDLPFGKRMGSKKRNWNLYPACLREMSRVCTPTTGRAVLLTQDTKCFTKALSGMRHVWRKVDTVWVNVGGLRAAVYVLIRTPQAFVHPSEQDGERGTLWQCKE
B3: THUMPD2 (enzyme, UniProt Q9BTF0 1-503)
chain: MSEARGEPGSGPEAGARFFCTAGRGLEPFVMREVRARLAATQVEYISGKVFFTTCSDLNMLKKLKSAERLFLLIKKQFPLIISSVSKGKIFNEMQRLINEDPGSWLNAISIWKNLLELDAKKEKLSQRDDNQLKRKVGENEIIAKKLKIEQMQKIEENRDCQLEKQIKEETLEQRDFTTKSEKFQEEEFQNDIEKAIDTHNQNDLTFRVSCRCSGTIGKAFTAQEVGKVIGIAIMKHFGWKADLRNPQLEIFIHLNDIYSVVGIPVFRVSLASRAYIKTAGLRSTIAWAMASLADIKAGAFVLDPMCGLGTILLEAAKEWPDVYYVGADVSDSQLLGTWDNLKAAGLEDKIELLKISVIELPLPSESVDIIISDIPFGKKFKLGKDIKSILQEMERVLHVGGTIVLLLSEDHHRRLTDCKESNIPFNSKDSHTDEPGIKKCLNPEEKTGAFKTASTSFEASNHKFLDRMSPFGSLVPVECYKVSLGKTDAFICKYKKSHSSGL
B4: TRMT112 (protein, UniProt Q9UI30 1-125)
chain: MKLLTHNLLSSHVRGVGSRGFPLRLQATEVRICPVEFNPNFVARMIPKVEWSAFLEAADNLRLIQVPKGPVEGYEENEEFLRTMHHLLLEVEVIEGTLQCPESGRMFPISRGIPNMLLSEEETES
B5: TRMT112 (recombinant, untagged) (protein, UniProt Q9UI30 1-125)
chain: B4 chain
B6: BtTRMT112 (protein, UniProt Q2KIA2 1-125)
chain: MRLLTHNLLSSHVRGVGPRGFPLRLQATEVRINPVEFNPDFIVRMIPKVEWAALLEAADHLHLIQVPKEPIQGYEHNEEFLRKMHHVLLEVEVLEGTLQCPESGRVFPISRGIPNMLLSDEETET

Sequences of proteins named here, by UniProt entry; tags and fusion partners are left off.
UniProt Q9NRN9: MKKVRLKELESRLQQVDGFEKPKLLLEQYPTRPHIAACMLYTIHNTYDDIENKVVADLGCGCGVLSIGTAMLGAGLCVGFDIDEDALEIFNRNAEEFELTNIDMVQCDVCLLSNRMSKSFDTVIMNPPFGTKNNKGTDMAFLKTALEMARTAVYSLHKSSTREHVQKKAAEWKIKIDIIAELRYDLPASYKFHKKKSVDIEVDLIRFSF

Key:
[1] = biological target: T1, TRMT112-WT-BirA*-HA (human) (UniProt Q9UI30); experiment: co-IP; co-IP of TRMT112 WT or T5R with METTL5 (Supplementary Figure S1A); bait, tags and beads not shown
T1 sequence: B4 chain

[2] = biological target: T2, TRMT112-T5R-BirA*-HA (human) (UniProt Q9UI30); experiment: co-IP; HEK293T cells expressing TRMT112-WT-BirA*-HA, TRMT112-T5R-BirA*-HA or BirA*-HA without biotin; anti-HA beads; with or without benzonase; western blot of the MTases
T2 sequence: B4 chain with T5R

[3] = biological target: T1, TRMT112-WT-BirA*-HA (human); experiment: as above
[4] = biological target: T3, 3 × Flag-THUMPD2 (human) (UniProt Q9BTF0); experiment: co-IP; reverse co-IP with 3 × Flag-THUMPD2 or -THUMPD3 as bait; TRMT112 detected in the IP fractions (Supplementary Figure S1C)
T3 sequence: B3 chain

[5] = biological target: T4, 3 × Flag-THUMPD3 (human) (UniProt Q9BV44); experiment: as above
T4 sequence: B2 chain

[6] = biological target: T5, TRMT11 (recombinant, C-terminally His6 tagged) (human) (UniProt Q7Z4G4); experiment: SEC-MALS; complexes co-expressed in E. coli and co-purified by the His tag of the MTase, ion exchange and SEC; 100 ul at 1 mg/ml on Superdex 200 Increase 10/300 GL; both purified
T5 sequence: B1 chain

[7] = biological target: T6, THUMPD3 (recombinant, of the human THUMPD3-TRMT112 complex) (human) (UniProt Q9BV44); experiment: as above
T6 sequence: B2 chain

[8] = biological target: T7, BtTHUMPD2 (Bos taurus) (UniProt E1B8U2); experiment: as above
T7 sequence: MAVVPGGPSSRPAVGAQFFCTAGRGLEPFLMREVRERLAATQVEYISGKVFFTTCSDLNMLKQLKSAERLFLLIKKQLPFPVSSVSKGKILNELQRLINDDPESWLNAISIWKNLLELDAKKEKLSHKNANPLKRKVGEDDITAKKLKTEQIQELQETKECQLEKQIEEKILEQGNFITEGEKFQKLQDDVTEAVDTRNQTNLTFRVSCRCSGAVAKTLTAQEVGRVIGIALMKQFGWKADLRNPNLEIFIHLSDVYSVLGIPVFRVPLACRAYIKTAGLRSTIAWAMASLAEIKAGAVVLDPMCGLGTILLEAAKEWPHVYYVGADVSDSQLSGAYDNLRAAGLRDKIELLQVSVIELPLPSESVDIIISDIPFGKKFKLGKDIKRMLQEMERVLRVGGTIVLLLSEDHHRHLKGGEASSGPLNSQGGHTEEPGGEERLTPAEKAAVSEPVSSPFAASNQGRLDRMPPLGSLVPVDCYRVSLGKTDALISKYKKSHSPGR

binding [2] | binding [3] | also measured | Molecule
– | – | binding [1]: binds | METTL5 (from UniProt Q9NRN9 1-209) (enzyme)
no binding | binds | – | B1
no binding | binds | – | B2
no binding | binds | – | B3
– | – | binding [4]: binds; binding [5]: binds | B4
– | – | binding [6]: binds; binding [7]: binds | B5
– | – | binding [8]: binds | B6
